From the supplement of paper PMC5499739
Whole data set: some 16,000 sequences, median “Z-score” near -0.37, cut for the highest 2% near 3.1. The list shows a part of the results.

tested on: RBM10 RRM1-ZnF-RRM2 (GST-tagged construct); experiment: RNAcompete 7-mer binding Z-score; higher = stronger binding preference
Summary of the method: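 Each heptamer motif was given a one-sided Z-score for enrichment across the probes that contained it. GST-tagged RBM10 constructs (20 pmol) were combined with 1.5 nmol of a designed pool of 241 399 RNAs of up to 41 nt, transcribed from microarray-derived DNA templates. Binding took place in 1 ml Hepes pH 7.8 buffer containing KCl, NaCl, glycerol, DTT, BSA and glutathione Sepharose beads for 30 min at 4°C. After four 2-min washes at 4°C, bound RNA was identified by microarray hybridisation.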

Sequence | RNAcompete 7-mer binding Z-score
GUUUGCU | -0.551
GUUGACA | 0.29
CUUUACU | -0.967
UUGCGUC | -0.595
CGAUAGG | 1.46
UUCAAUU | -0.719
UUAAGAA | -0.151
CAGUAAA | -0.14
UGUUGGG | 2.15
CCCCCCG | -0.118
AGGUCAA | 0.479
UUUGACU | -0.785
CUAGAGG | 0.323
GCAGGAG | 2.76
UUCCGAC | -0.708
GGCGUAA | 0.96
CGGGCUG | 0.625
AGGCUCA | -0.373
AGUAAAA | -0.0415
AACAAGG | 2.83
GUAUCUC | -0.581
GGUUAUA | 0.592
GUAGGUU | 1.62
CAUCCCA | -0.486
UUGAGAU | -0.122

Sequence | RNAcompete 7-mer binding Z-score
CAACGAC | -0.256
AGCAACA | 0.0131
GCCACCA | -0.566
GGUCAGU | 0.796
ACAUGUA | -0.122
UCUCGAG | -0.566
CCCUGUU | -0.981
UCACAUC | -0.734
GUCAGCG | 0.177
AAACGAA | 0.108
UCAGUUU | -0.712
GAUGCAA | 0.308
GACCAAU | -0.209
ACCUUAC | -0.981
GUCCCGA | -0.581
AUUGUCA | -0.599
UUAUCUU | -0.77
UCAGAUU | -0.635
UUAGUGU | -0.0161
UAACGCA | -0.519
CUGGGGU | 1.79
UAGAAGC | -0.0343
CAGCCAA | -0.344
CACUUCU | -1.01
GUCGUUG | 0.0604

Sequence | RNAcompete 7-mer binding Z-score
AUGGGAG | 3.64
ACCACAC | -0.533
UCUGUCU | -0.81
UAAAGGU | 1.78
GGCCGUC | -0.398
AGGGACA | 2.4
AGUGCGG | 1.38
AACAGGU | 1.74
UCCUAAC | -0.843
GACGAUA | 0.144
CAAAGAG | 0.166
AAGAUUC | -0.482
CGCACGA | 0.0204
GGAGAGC | 2.03
CGGCUGG | 0.348
UCGAGUG | 0.133
UGGUCGC | 0.0786
UCCGUCC | -0.73
CCGUAGA | -0.373
AUCUGUA | -0.621
UAUUAUA | -0.49
AGGCAAA | 0.658
UGGCAGU | 0.436
UCCCGGC | -0.573
CGCCGCU | -0.679

Sequence | RNAcompete 7-mer binding Z-score
GUGCUCC | -0.471
CGUUGUA | -0.384
AAGAUAA | -0.0233
CAUAGAG | 0.345
CUUAGGG | 0.516
GGAUCCA | 0.122
GCAUACG | 0.111
GCCUUUU | -0.963
GGUCUUU | -0.406
CAGGAGU | 1.71
GGAGCAC | 1.66
CCAAUCC | -0.672
UAUCGUA | -0.428
AGGGUAA | 4.77
GUCCAUG | -0.351
UGUCCGG | -0.242
CUUCUCA | -0.981
UACAACC | -0.511
ACGAGUC | -0.439
GGUUCCC | -0.144
UUCAAGA | -0.409
UUCUUCC | -0.781
AGGAACU | -0.00148
GGGGUCU | 1.2
GUCGCGU | -0.0124

Sequence | RNAcompete 7-mer binding Z-score
UUCAGGA | 0.21
AAGGCGG | 2.97
CCGUUUU | -1.01
AAUCCAA | -0.409
ACAGAGG | 1.76
UUACAUC | -0.628
UGGCGCG | 1.06
UGAGGUU | 1.64
UGUAACA | -0.00877
AGGAGGU | 2.71
UCGGUAC | -0.144
AGAUGCG | 0.0495
AGCGCAC | -0.406
UAGAAAA | 0.0641
CACUAAA | -0.719
AGAUAAU | -0.136
UCCUGCG | -0.766
GGAUCGG | 1.96
UCUGUAC | -0.551
UGUUCUC | -0.781
CCCUACC | -0.836
CCACUGU | -0.817
UUUCGCA | -0.894
UCGCCCU | -0.806
AUGACAU | -0.216

Sequence | RNAcompete 7-mer binding Z-score
GGGGCGG | 2.79
AAAGUCA | -0.0233
GACUCCU | -0.828
AGUGCGA | 0.989
UCACAUA | -0.664
GAAACAA | 0.388
AUAGACG | 0.217
AUUGAUG | 0.294
UUGACCA | -0.49
CUUCAAG | -0.595
GAGAUAC | 0.323
ACGCUAC | -0.643
CUCCGCA | -0.752
GCUAAGU | -0.246
CUACGAC | -0.777
GUCAUAG | -0.0525
UAGCGAG | 0.694
GAGGUAA | 2.53
AAGCAUC | -0.358
UGGCGAA | 1.4
UGAAACG | -0.0889
AGGUCGA | 0.607
GCAAAAG | 0.614
AAUUUGA | -0.482
CCAGUAC | -0.482

Sequence | RNAcompete 7-mer binding Z-score
UAGCCGC | -0.592
CACGACG | -0.103
AAAGGUC | 1.46
ACUCAGC | -0.664
AGGAGAU | 1.47
AUCGGUG | 0.691
CCCAUUC | -0.785
CAGCAAC | -0.431
GAGGUCU | 0.0167
CCCGAUG | -0.446
GAGUCGC | 0.184
UCAAGAU | -0.402
UGAUCUA | -0.715
GGUAUAC | 0.891
UACCCCG | -0.551
AGACGUC | -0.785
ACGUGCC | -0.621
AUAAUAA | -0.42
UUUUUAA | -0.621
UAAGCGG | 0.931
UUAAAGA | -0.351
UGCGGGU | 2.48
ACUCAGA | -0.541
UGCGCAA | -0.358
CACACAU | -0.646

Sequence | RNAcompete 7-mer binding Z-score
GCGAUUA | -0.271
UGGAGAU | 1.33
CAGCAUU | -0.519
UAUGCCU | -0.861
CACAAUG | -0.249
CUCAACG | -0.643
UCCUCAG | -0.752
CCGUCGA | -0.584
GGCUGAG | 0.945
GAUGUUA | -0.282
ACGAUCG | -0.184
CCCGCCC | -0.573
GUGUCUG | -0.0634
UUAUUCG | -0.708
GGCCGCA | -0.311
GCAGACC | -0.202
GAAGGAG | 4.52
UGCACGA | -0.227
ACAUGAC | -0.551
CUUGCGG | -0.235
ACCGAGC | -0.49
AUGUCCC | -0.668
CGGGGCC | 0.629
CACUCGG | -0.136
AAUACUG | -0.311

Sequence | RNAcompete 7-mer binding Z-score
AUUAUGC | -0.395
ACAUUAG | -0.242
CUGUCAU | -0.723
UUGUGAG | 0.388
GUCGAGU | 0.122
GUGACGC | 0.392
GUGUCCA | -0.362
CAUACUG | -0.588
CCAGGAC | 0.148
CCCACCU | -0.755
GGCUACU | -0.358
UAUUCAA | -0.606
CCGACAA | -0.763
UUCUAGC | -0.795
CAUGACG | -0.315
CCAUCAA | -0.643
GACGAGG | 2.77
GGGCUAA | 1.19
ACCCAGU | -0.639
GACGAGA | 0.691
GGCUGAU | 0.184
CUCGGGG | 1.05
GCCAUUG | -0.551
UAUGCGU | -0.296
GUCACUA | -0.278

Sequence | RNAcompete 7-mer binding Z-score
AGACCGC | -1.12
GAAAUAG | 0.818
ACCCGCG | -0.431
AAAUGAA | -0.151
AGUACCG | 0.0495
GUGACCA | 0.337
GGUCAAA | 0.144
CGGAACG | 0.8
AUCAUCU | -0.97
UACCGCA | -0.635
CAUGUCA | -0.646
GUGCCAC | -0.147
AUCUGGU | -0.34
ACGUACC | -0.544
AGGAAGG | 4.46
GUACCAA | 0.119
CUUUAGC | -0.916
CGGUGUU | -0.253
UGAUGGU | 1.26
UGCUUUA | -0.766
ACCGACC | -0.876
GCAUUCC | -0.675
AUCCGUA | -0.686
CCUUAGG | -0.256
AUGCGCU | -0.537

Sequence | RNAcompete 7-mer binding Z-score
AUAACUU | -0.358
GUUUUUC | -0.347
GGAUGCG | 2.03
CGGAAGU | 0.716
CAACGCC | -0.537
UUUAUCC | -0.719
ACGUGAG | 0.738
CUAAGGC | -0.0816
CUACACG | -0.613
GAACUCC | -0.606
GUGGGGC | 3.47
CUUCUCC | -0.912
CGCAUUC | -0.723
AAAGGCA | 1.85
AAUCCAG | -0.329
GGGCACA | 1.39
AGGGCAC | 0.935
CCGCUCC | -0.694
ACCGCGC | -0.417
GAUUGAA | 0.359
AUCUAGU | -0.653
UGGAGGA | 2.95
CAUCCAU | -0.752
UCAAGAA | -0.406
CGCUCAC | -0.592

Sequence | RNAcompete 7-mer binding Z-score
UAUACGC | -0.686
CCGUCAG | -0.621
GAUCAAG | 0.341
UAUUCGG | -0.26
AGGCGAC | 0.355
GCGCUAU | -0.344
GGAUCUG | -0.00877
GAAUGGC | 1.68
GGACUAC | 0.224
GUGGCGU | 1.36
CAUAUCC | -0.588
CUCGUCC | -0.872
AUGAAAU | -0.187
GCAAUGA | 0.177
AUCGAAG | 0.308
GGACAGU | 1.01
GAUUCGC | -0.515
GCGGAUA | 1.83
GUGCAGC | 0.501
AUUCUCC | -0.679
GUAGUCA | 0.253
CCAGAAC | -0.566
GAUUGUG | 0.432
ACGACUU | -0.686
CAGUUUC | -0.77

Sequence | RNAcompete 7-mer binding Z-score
UUUCGGG | 0.421
ACACUAU | -0.541
ACGGCAC | -0.027
ACUACUU | -0.828
CUCAGAC | -0.643
AGCGGUU | 0.778
AGCAGGA | 2.45
UGGGGCC | 0.76
AGACAUC | -0.748
UUACCAA | -0.617
UGAUAGC | -0.0853
GAAGGAC | 2.8
AUAUAAG | 0.119
GGUCUAU | -0.162
UGAAAUG | 0.687
CGCCUAU | -0.828
GAUGUGC | 0.192
AACACUG | -0.26
GUCUGCU | -0.737
AUCCCUU | -0.788
GCGUGAC | -0.103
CCAUCGA | -0.621
CAUUCAU | -0.755
GAGACAG | 0.854
UAUCAUG | -0.471

Sequence | RNAcompete 7-mer binding Z-score
AGAAAAU | 0.0859
UGGCUUU | -0.464
GUGUGUA | 0.851
UGUUCUA | -0.836
AGGUGUA | 1.76
GACAGUC | -0.599
GUGGACC | 0.953
AGGGCGC | 1.05
CUAACCG | -0.748
UUAUGAC | -0.632
AAGCACU | -0.391
AGAAUGU | 0.184
AGUGUAG | 1.29
GCGGACG | 1.5
AUUUUCG | -0.876
UACGCGA | -0.216
UGCAACC | -0.504
AAUGAGG | 1.94
CCCUAGG | 0.217
CACUCCA | -0.697
UAUAGUU | -0.271
AAAUUCU | -0.646
CUCCUAC | -0.832
UGCGAGA | 0.192
UCGCCAA | -0.697

Sequence | RNAcompete 7-mer binding Z-score
GCGAACU | -0.213
UUCGGCC | -0.843
AACUUCC | -0.825
UAUUGAC | -0.613
UGUAGCU | -0.34
GAGAGCG | 1.33
CUGCCGU | -0.741
UGGCAUU | -0.027
UAGGAAC | 1.68
CGAAACU | -0.624
UCCCACC | -0.511
UCUCAAG | -0.5
UUGGAGU | 1.02
ACGCAAU | -0.431
CUCUUUC | -0.821
CUUACGG | -0.326
AUCUCAG | -0.497
